Laboratory results from the supplement of paper PMC11417369.
The other results are listed elsewhere or left out.

tested on: PF3D7_0420300 AP2 domain 1 (GST-tagged); experiment: gcPBM binding intensity (ln(normalized median fluorescence intensity)); higher = stronger DNA binding
How it was run: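 Using an Agilent 4 × 180k array, primer-extended double-stranded 36-bp intergenic genomic probes and negative controls were exposed for 1 h to GST-fused P. falciparum DNA-binding domains expressed in E. coli. Binding was carried out in 1× PBS with 1% milk, 0.2 mg/ml BSA, 0.5% salmon testes DNA and 0.03% Triton X-100, and protein was detected with Alexa488 anti-GST antibody and a 488 nm scan. Binding intensity is the highest Masliner-normalised natural-log median intensity across replicate spots of either probe orientation.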

Sequence | gcPBM binding intensity (ln)
TATTGCCCGAAACACACACACATATATATATATATA [CACACA_site2491] | 9.81
GTTTATCACAGCCACGCACACATAATATATGTATAT [CACACA_site3669] | 9.54
TATAATATTTACGACAGTACATATATATATATGTAT [XGTACX_site8332] | 9.3
AAATAATTTGTTGACACACACACACCCATACATATA [CACACA_site2285] | 10.2
ATTATATGTAACACGTGTACCTATTTATGTATGCTT [XGTACX_site5748] | 9.4
AATATACAAAATATCACACATATAAAATAATATATA [CACACA_site6067] | 9.48
GATATATAAACATATACACACAAAAACATATTTATA [CACACA_site6734] | 9.51
TGATAATTTCATTTTGCATGTGACAATACAAGATGT [TGCATGCA_site203] | 9.07
AATGGTTCAACGTAGTGTACGTAATAAATAATAAAT [XGTACX_site8668] | 9.33
AAATAATATGTAATCAAATTCACCAAACGAAAAAAA [TGCATGCA_negctrl_site33] | 9.52
TATAAAATAAAAGTAAATATATATATATATATATAT [TGCATGCA_negctrl_site208] | 9.06
TTCTAGAAAACTGATCGTACAAATAAATATAGACAC [XGTACX_site2808] | 9.33
ATATATTATAATGATACACACAAGAAATAAAATTAC [CACACA_site3095] | 9.9
AATGCATACACATATTGTACTAAGCCATACAACACA [XGTACX_site305] | 9.41
AAAATAGGGATCACGTGTACATATAAAGTGACATAC [XGTACX_site8190] | 9.61
TAACTCTATTTTTTTGCATGCTGAAGCTATGAGTTT [TGCATGCA_site821] | 9.15
TATGTAGGTAAAAATTGTACTTTTTTTTTAATATTT [XGTACX_site2303] | 9.17
TGACATAATGTGTGTAGTACATATATCGTTATTTGA [XGTACX_site5152] | 9.46
TGAATAAATATAAAAGGTACACATATAAATATATAT [XGTACX_site6349] | 9.51
ATAAAAATAAAATAAGGTACAGACGAAAAAATTGAA [XGTACX_site5097] | 9.74
ATAATATTATGTGTGAATATATCTTTAAAAAGGATA [GTGCAC_negctrl_site15] | 9.25
TATATATTTCATAATACACACGAAAAAAAAAAAAAA [CACACA_site8972] | 9.31

Sequence | gcPBM binding intensity (ln)
CACAAAAATAGACACACACACATATAAATAAATATA [CACACA_site6598] | 10
ATATATATATATATATGTACACATATTATAAAAAAA [XGTACX_site8644] | 9.04
ATATATATTATATAGTGTACCTATGTATAATAATAT [XGTACX_site1683] | 9.2
TATATATATAAATACACACACACCGTCCGTGTTAAA [CACACA_site5623] | 9.73
AATACGTTATTATTTTGTACATATAAATAATAAGTT [XGTACX_site815] | 9.14
ACTCTTTTAACGCAAAGTACTTTTTAAAATATTTCG [XGTACX_site7534] | 9.27
AACATACGAATATTCACACATAAATATATAAATCGC [CACACA_site4672] | 9.57
ATTTCTATTTGGGTTAGTACATATAAGTCTATTTTC [XGTACX_site3234] | 9.45
TATATAATCGAGTGCACACACAAAAAAAAAGTGAAC [CACACA_site1483] | 9.92
TTTTTTTTTTCTTTTTGTACATATTCATAACAAGTA [XGTACX_site2784] | 9.1
TATTATATATATATCACACATATATTCATGTACATA [CACACA_site5432] | 9.33
TTTGACATACCTCTTGCATGTGAAAAACTTTTCGCT [TGCATGCA_site364] | 9.11
ATATATAATATTTATTGTACTATTTTATTTTTATAA [XGTACX_site705] | 9.28
AAAAAAGACCATGTTAGTACATAAGATTTTTTTCAT [XGTACX_site4298] | 9.18
AATTTTCTTAAAATTTGTACGTATATATTTAATATA [XGTACX_site3906] | 9.1
GTCATATATAATTGTTGTACATTTTTATAATTATGT [XGTACX_site8091] | 9.47
AATATAAATGTGATTACACACAACACATTTAAATGT [CACACA_site1212] | 9.6
AAAAAATTATATTATGCACACATCGTTATATATATA [CACACA_site1201] | 9.43
TATATATACTATAACACACATACACCCAAAAAAAAA [CACACA_site536] | 9.8
CTTATACATATATATAGTACATATATCATTTTTATG [XGTACX_site4462] | 9.39
TTAAAAAGATGTCACTGTACATAAAACATAAAATAT [XGTACX_site2886] | 9.41
TTTCATGACAATGTTTGTACATAATAAAATATATTT [XGTACX_site7039] | 8.94
